{"source": "the supplement of paper PMC10126150", "note": "Sequences with one replicate were seen in a single cluster, so their values are uncertain.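 Note: ATP exposure 15 min at 22 °C before imaging.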"}
{"tested_on": "ATP", "test": "switch fluorescence ratio, 500 uM ATP over buffer (Cy3 cluster intensity, sum of 5 cycles each) (fold (ratio)); higher = stronger signal-on switching upon ATP binding; sequences stand for … in TCGTCGGCAGCGTCAGATGTGTATAAGAGACAGTTTTTTTTTTTTTTTTTTTTTTTTT…TC", "conditions": "aptamer strand: ATP DNA aptamer (quencher-CACCTGGGGGAGTATTGCGGAGGAAGG + anchor), 100 nM annealed; ATP concentration: 500 uM; one replicate", "outline": "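Imaging in selection buffer was followed by imaging after 15 min with 500 uM ATP at 22 °C, for Cy3-labelled switching-strand clusters annealed to 100 nM quencher-labelled ATP aptamer on a modified Illumina MiSeq flow-cell. Five of these buffer/ATP cycles ran, separated by NaOH stripping and re-annealing. The fluorescence ratio per cluster is summed target-cycle over summed buffer-cycle Cy3 intensity, averaged per switch-domain sequence; clusters outside 100-1000 RFU were removed.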"}
{"sequence": "CGCCAAGCC", "switch fluorescence ratio": 1.84}
{"sequence": "CGCCAGCCGG", "switch fluorescence ratio": 1.03}
{"sequence": "CGCCAGCTGA", "switch fluorescence ratio": 1.15}
{"sequence": "CGCCATATGA", "switch fluorescence ratio": 1.21}
{"sequence": "CGCCATCTCT", "switch fluorescence ratio": 1.23}
{"sequence": "CGCCATCTTT", "switch fluorescence ratio": 1.05}
{"sequence": "CGCCATTTTG", "switch fluorescence ratio": 1.02}
{"sequence": "CGCCCAGCAA", "switch fluorescence ratio": 6.58}
{"sequence": "CGCCCGTCTG", "switch fluorescence ratio": 1.04}
{"sequence": "CGCCGAATTA", "switch fluorescence ratio": 1.04}
{"sequence": "CGCCGAGCAT", "switch fluorescence ratio": 1.06}
{"sequence": "CGCCGATGG", "switch fluorescence ratio": 1.01}
{"sequence": "CGCCGCAGGA", "switch fluorescence ratio": 4.1}
{"sequence": "CGCCGCATTG", "switch fluorescence ratio": 3.03}
{"sequence": "CGCCGCCACG", "switch fluorescence ratio": 1.65}
{"sequence": "CGCCGGATTA", "switch fluorescence ratio": 0.976}
{"sequence": "CGCCGGGTTA", "switch fluorescence ratio": 0.985}
{"sequence": "CGCCGTATGA", "switch fluorescence ratio": 0.996}
{"sequence": "CGCCGTCGCA", "switch fluorescence ratio": 0.999}
{"sequence": "CGCCGTCTT", "switch fluorescence ratio": 0.996}
{"sequence": "CGCCGTGCAG", "switch fluorescence ratio": 0.998}
{"sequence": "CGCCTAGTGG", "switch fluorescence ratio": 1.03}
{"sequence": "CGCCTCTATT", "switch fluorescence ratio": 1.07}
{"sequence": "CGCCTCTTAC", "switch fluorescence ratio": 2.14}
{"sequence": "CGCCTGAGCG", "switch fluorescence ratio": 0.961}
{"sequence": "CGCCTGAGTA", "switch fluorescence ratio": 0.951}
{"sequence": "CGCCTTATCA", "switch fluorescence ratio": 1.14}
{"sequence": "CGCCTTGCCC", "switch fluorescence ratio": 0.989}
{"sequence": "CGCCTTTTGC", "switch fluorescence ratio": 1.02}
{"sequence": "CGCGAAGAGG", "switch fluorescence ratio": 0.978}
{"sequence": "CGCGAATGGT", "switch fluorescence ratio": 1.01}
{"sequence": "CGCGAATTCG", "switch fluorescence ratio": 0.989}
{"sequence": "CGCGAGCACG", "switch fluorescence ratio": 1.05}
{"sequence": "CGCGATGCTA", "switch fluorescence ratio": 3.83}
{"sequence": "CGCGATGGCA", "switch fluorescence ratio": 1.03}
{"sequence": "CGCGCACGAC", "switch fluorescence ratio": 4.32}
{"sequence": "CGCGCAGTTC", "switch fluorescence ratio": 2.32}
{"sequence": "CGCGCCCGGG", "switch fluorescence ratio": 1.07}
{"sequence": "CGCGCGGGCC", "switch fluorescence ratio": 0.978}
{"sequence": "CGCGCTTCGG", "switch fluorescence ratio": 0.981}
{"sequence": "CGCGGAATCC", "switch fluorescence ratio": 1.39}
{"sequence": "CGCGGCAGGG", "switch fluorescence ratio": 1.05}
{"sequence": "CGCGGGTTCT", "switch fluorescence ratio": 1.03}
{"sequence": "CGCGGTCTGT", "switch fluorescence ratio": 1.03}
{"sequence": "CGCGTAAACT", "switch fluorescence ratio": 1.08}
{"sequence": "CGCGTACAAT", "switch fluorescence ratio": 1.04}
{"sequence": "CGCGTCAGAT", "switch fluorescence ratio": 1.09}
{"sequence": "CGCGTGCGAA", "switch fluorescence ratio": 1.04}
{"sequence": "CGCGTTTACC", "switch fluorescence ratio": 1.04}
{"sequence": "CGCGTTTTCT", "switch fluorescence ratio": 1.03}
{"sequence": "CGCTAGTATC", "switch fluorescence ratio": 1.16}
{"sequence": "CGCTATAAAG", "switch fluorescence ratio": 1.04}
{"sequence": "CGCTCAATGT", "switch fluorescence ratio": 1.06}
{"sequence": "CGCTCACGGG", "switch fluorescence ratio": 1.08}
{"sequence": "CGCTCAGCAG", "switch fluorescence ratio": 1.44}
{"sequence": "CGCTCCTATG", "switch fluorescence ratio": 0.982}
{"sequence": "CGCTCCTCAA", "switch fluorescence ratio": 6.34}
{"sequence": "CGCTCGGGA", "switch fluorescence ratio": 1.04}
{"sequence": "CGCTCTCCCG", "switch fluorescence ratio": 2.3}
{"sequence": "CGCTCTCCGA", "switch fluorescence ratio": 1.14}
{"sequence": "CGCTCTGAAC", "switch fluorescence ratio": 1.19}
{"sequence": "CGCTCTGACT", "switch fluorescence ratio": 1.03}
{"sequence": "CGCTGAAGGT", "switch fluorescence ratio": 1.02}
{"sequence": "CGCTGAAGTG", "switch fluorescence ratio": 0.987}
{"sequence": "CGCTGAGCCG", "switch fluorescence ratio": 1.02}
{"sequence": "CGCTGAGGGT", "switch fluorescence ratio": 0.97}
{"sequence": "CGCTGATCAG", "switch fluorescence ratio": 1.01}
{"sequence": "CGCTGGATTT", "switch fluorescence ratio": 1.05}
{"sequence": "CGCTGGGATC", "switch fluorescence ratio": 1.06}
{"sequence": "CGCTGTATA", "switch fluorescence ratio": 1.01}
{"sequence": "CGCTGTCTGG", "switch fluorescence ratio": 1}
{"sequence": "CGCTGTGTTG", "switch fluorescence ratio": 1.07}
{"sequence": "CGCTTAGGTG", "switch fluorescence ratio": 1.64}
{"sequence": "CGCTTATCTC", "switch fluorescence ratio": 2.01}
{"sequence": "CGCTTCAGCG", "switch fluorescence ratio": 0.999}
{"sequence": "CGCTTCATGG", "switch fluorescence ratio": 0.98}
{"sequence": "CGCTTGTCTC", "switch fluorescence ratio": 1.18}
{"sequence": "CGCTTTACAG", "switch fluorescence ratio": 1.07}
{"sequence": "CGGAAAGATG", "switch fluorescence ratio": 1.04}
{"sequence": "CGGAACGAGG", "switch fluorescence ratio": 1.02}
{"sequence": "CGGAACGGCG", "switch fluorescence ratio": 0.988}
{"sequence": "CGGAACGGGA", "switch fluorescence ratio": 1.11}
{"sequence": "CGGAACTGAC", "switch fluorescence ratio": 1.07}
{"sequence": "CGGAACTGAG", "switch fluorescence ratio": 1.03}
{"sequence": "CGGAAGAACA", "switch fluorescence ratio": 1.29}
{"sequence": "CGGAAGAGAG", "switch fluorescence ratio": 0.971}
{"sequence": "CGGAATGGAA", "switch fluorescence ratio": 0.981}
{"sequence": "CGGAATTAAT", "switch fluorescence ratio": 1.02}
{"sequence": "CGGACACGAG", "switch fluorescence ratio": 1.05}
{"sequence": "CGGACATTAT", "switch fluorescence ratio": 1.03}
{"sequence": "CGGACCGCGT", "switch fluorescence ratio": 1}
{"sequence": "CGGACGGTCG", "switch fluorescence ratio": 1.11}
{"sequence": "CGGACTAGCT", "switch fluorescence ratio": 1.05}
{"sequence": "CGGAGAGCAC", "switch fluorescence ratio": 1.06}
{"sequence": "CGGAGATAAA", "switch fluorescence ratio": 1.01}
{"sequence": "CGGAGCACC", "switch fluorescence ratio": 3.49}
{"sequence": "CGGAGCGCT", "switch fluorescence ratio": 1.08}
{"sequence": "CGGAGCGTAT", "switch fluorescence ratio": 1.56}
{"sequence": "CGGAGGAC", "switch fluorescence ratio": 1.07}
{"sequence": "CGGAGGCTGA", "switch fluorescence ratio": 1.02}
